# Measured values as given in the supplement of paper PMC8728848.
# The other results are listed elsewhere or left out.
# B1: Epa3 (Candida glabrata), Q6VBI8_CANGB (protein)
# chain: MGSSHHHHHHSSGLVPRGSHMNDLGFSLFEKRELSSQNPFGYPIGCSPQDVAIIPGLTMELYSYPIVSGTPPNCYDASYVDPEYPRTGYLKRKMVGKSTGVTGNLNYKYSVEKACMVKYGNLPAGYNYNEPLTVSNFTMILYGYFKAQTTGLHTFFVNADDLLYINFGAGNAFDCCKREDSKTKLGEYVAYDIWHVDSSKNKVSLFLEKDLYYPIRMFFNNIGKDSSLDLSFSVNGATDQISDFSGYLYSVPDQPDTCPAHIGYDTTCR
# Tests used:
# Assay in all cases: glycan array binding signal (z-score within array); higher = stronger binding
# Settings in all cases: glycan notation: IUPAC condensed, linker removed
# Glc(b1-4)Glc = molecular target: Glc(b1-4)Glc
# How it was run: (§1)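 Negative Z-scores can be read as non-binding. The Z-score is calculated within each array and then averaged across arrays of one protein sequence at different concentrations or buffers and across linkers. Arrays, 3228 in all, were curated from the Consortium for Functional Glycomics database and kept only where the protein sequence was available.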
# Glc(b1-6)Glc = molecular target: Glc(b1-6)Glc
# How it was run: as §1
# GlcA(b1-3)Gal = molecular target: GlcA(b1-3)Gal
# How it was run: as §1
# GlcA(b1-3)GlcNAc = molecular target: GlcA(b1-3)GlcNAc
# How it was run: as §1
# GlcA(b1-6)Gal = molecular target: GlcA(b1-6)Gal
# How it was run: as §1
# [1] = molecular target: GlcA3S(b1-3)Gal(b1-4)GlcNAc(b1-2)Man
# How it was run: as §1
# [2] = molecular target: GlcA3S(b1-3)Gal(b1-4)GlcNAc(b1-3)Gal(b1-4)Glc
# How it was run: as §1
# [3] = molecular target: GlcNAc(a1-3)Gal(b1-4)GlcNAc
# How it was run: as §1
# [4] = molecular target: GlcNAc(a1-4)Gal(b1-3)GlcNAc
# How it was run: as §1
# [5] = molecular target: GlcNAc(a1-4)Gal(b1-4)GalNAc
# How it was run: as §1
# [6] = molecular target: GlcNAc(a1-4)Gal(b1-4)GlcNAc
# How it was run: as §1
# [7] = molecular target: GlcNAc(a1-4)Gal(b1-4)GlcNAc(b1-3)Gal(b1-4)Glc
# How it was run: as §1
# [8] = molecular target: GlcNAc(a1-4)Gal(b1-4)GlcNAc(b1-3)Gal(b1-4)GlcNAc
# How it was run: as §1
# [9] = molecular target: GlcNAc(a1-4)Gal(b1-4)GlcNAc(b1-3)Gal(b1-4)GlcNAc(b1-3)Gal(b1-4)GlcNAc
# How it was run: as §1
# [10] = molecular target: GlcNAc(a1-4)Gal(b1-4)GlcNAc(b1-3)Gal(b1-4)[Fuc(a1-3)]GlcNAc(b1-3)Gal(b1-4)[Fuc(a1-3)]GlcNAc
# How it was run: as §1
# [11] = molecular target: GlcNAc(a1-6)Gal(b1-4)GlcNAc
# How it was run: as §1
# [12] = molecular target: GlcNAc(b1-2)Gal(b1-3)GalNAc
# How it was run: as §1
# [13] = molecular target: GlcNAc(b1-2)Man(a1-3)[GlcNAc(b1-2)Man(a1-6)]Man(b1-4)GlcNAc(b1-4)GlcNAc
# How it was run: as §1
# [14] = molecular target: GlcNAc(b1-2)Man(a1-3)[GlcNAc(b1-2)Man(a1-6)]Man(b1-4)GlcNAc(b1-4)[Fuc(a1-6)]GlcNAc
# How it was run: as §1
# [15] = molecular target: GlcNAc(b1-2)Man(a1-3)[GlcNAc(b1-4)][GlcNAc(b1-2)Man(a1-6)]Man(b1-4)GlcNAc(b1-4)GlcNAc
# How it was run: as §1
# [16] = molecular target: GlcNAc(b1-2)Man(a1-3)[GlcNAc(b1-4)][GlcNAc(b1-2)Man(a1-6)]Man(b1-4)GlcNAc(b1-4)[Fuc(a1-6)]GlcNAc
# How it was run: as §1
# [17] = molecular target: GlcNAc(b1-2)[GlcNAc(b1-4)]Man(a1-3)[GlcNAc(b1-2)Man(a1-6)]Man(b1-4)GlcNAc(b1-4)GlcNAc
# How it was run: as §1
# [18] = molecular target: GlcNAc(b1-2)[GlcNAc(b1-4)]Man(a1-3)[GlcNAc(b1-4)][GlcNAc(b1-2)Man(a1-6)]Man(b1-4)GlcNAc(b1-4)GlcNAc
# How it was run: as §1
# [19] = molecular target: GlcNAc(b1-2)[GlcNAc(b1-4)]Man(a1-3)[GlcNAc(b1-4)][GlcNAc(b1-2)[GlcNAc(b1-6)]Man(a1-6)]Man(b1-4)GlcNAc(b1-4)GlcNAc
# How it was run: as §1
# [20] = molecular target: GlcNAc(b1-2)[GlcNAc(b1-4)]Man(a1-3)[GlcNAc(b1-4)][GlcNAc(b1-2)[GlcNAc(b1-6)]Man(a1-6)]Man(b1-4)GlcNAc(b1-4)[Fuc(a1-6)]GlcNAc
# How it was run: as §1
# [21] = molecular target: GlcNAc(b1-2)[GlcNAc(b1-6)]Man(a1-6)[GlcNAc(b1-2)Man(a1-3)]Man(b1-4)GlcNAc(b1-4)GlcNAc
# How it was run: as §1
# [22] = molecular target: GlcNAc(b1-2)[GlcNAc(b1-6)]Man(a1-6)[GlcNAc(b1-2)Man(a1-3)]Man(b1-4)GlcNAc(b1-4)[Fuc(a1-6)]GlcNAc
# How it was run: as §1
# [23] = molecular target: GlcNAc(b1-2)[GlcNAc(b1-6)]Man(a1-6)[GlcNAc(b1-4)][GlcNAc(b1-2)Man(a1-3)]Man(b1-4)GlcNAc(b1-4)GlcNAc
# How it was run: as §1
# GlcNAc(b1-3)Fuc = molecular target: GlcNAc(b1-3)Fuc
# How it was run: as §1
# GlcNAc(b1-3)Gal = molecular target: GlcNAc(b1-3)Gal
# How it was run: as §1
# [24] = molecular target: GlcNAc(b1-3)Gal(b1-3)GalNAc
# How it was run: as §1
# GlcNAc(b1-3)Gal(b1-4)Glc = molecular target: GlcNAc(b1-3)Gal(b1-4)Glc
# How it was run: as §1
# [25] = molecular target: GlcNAc(b1-3)Gal(b1-4)GlcNAc
# How it was run: as §1
# [26] = molecular target: GlcNAc(b1-3)Gal(b1-4)GlcNAc(b1-2)Man(a1-3)[GlcNAc(b1-3)Gal(b1-4)GlcNAc(b1-2)Man(a1-6)]Man(b1-4)GlcNAc(b1-4)GlcNAc
# How it was run: as §1
# [27] = molecular target: GlcNAc(b1-3)Gal(b1-4)GlcNAc(b1-2)Man(a1-3)[GlcNAc(b1-3)Gal(b1-4)GlcNAc(b1-2)Man(a1-6)]Man(b1-4)GlcNAc(b1-4)[Fuc(a1-6)]GlcNAc
# How it was run: as §1
# [28] = molecular target: GlcNAc(b1-3)Gal(b1-4)GlcNAc(b1-2)[GlcNAc(b1-3)Gal(b1-4)GlcNAc(b1-6)]Man(a1-6)[GlcNAc(b1-3)Gal(b1-4)GlcNAc(b1-2)Man(a1-3)]Man(b1-4)GlcNAc(b1-4)GlcNAc
# How it was run: as §1
# [29] = molecular target: GlcNAc(b1-3)Gal(b1-4)GlcNAc(b1-3)Gal(b1-4)GlcNAc
# How it was run: as §1
# [30] = molecular target: GlcNAc(b1-3)Gal(b1-4)GlcNAc(b1-3)Gal(b1-4)GlcNAc(b1-2)Man(a1-3)[GlcNAc(b1-3)Gal(b1-4)GlcNAc(b1-3)Gal(b1-4)GlcNAc(b1-2)Man(a1-6)]Man(b1-4)GlcNAc(b1-4)GlcNAc
# How it was run: as §1
# [31] = molecular target: GlcNAc(b1-3)Gal(b1-4)GlcNAc(b1-3)Gal(b1-4)GlcNAc(b1-2)Man(a1-3)[GlcNAc(b1-3)Gal(b1-4)GlcNAc(b1-3)Gal(b1-4)GlcNAc(b1-2)Man(a1-6)]Man(b1-4)GlcNAc(b1-4)[Fuc(a1-6)]GlcNAc
# How it was run: as §1
# [32] = molecular target: GlcNAc(b1-3)Gal(b1-4)GlcNAc(b1-3)Gal(b1-4)GlcNAc(b1-2)[GlcNAc(b1-3)Gal(b1-4)GlcNAc(b1-3)Gal(b1-4)GlcNAc(b1-6)]Man(a1-6)[GlcNAc(b1-3)Gal(b1-4)GlcNAc(b1-3)Gal(b1-4)GlcNAc(b1-2)Man(a1-3)]Man(b1-4)GlcNAc(b1-4)[Fuc(a1-6)]GlcNAc
# How it was run: as §1
# [33] = molecular target: GlcNAc(b1-3)Gal(b1-4)GlcNAc(b1-3)Gal(b1-4)GlcNAc(b1-3)Gal(b1-4)GlcNAc(b1-2)Man(a1-3)[GlcNAc(b1-3)Gal(b1-4)GlcNAc(b1-3)Gal(b1-4)GlcNAc(b1-3)Gal(b1-4)GlcNAc(b1-2)Man(a1-6)]Man(b1-4)GlcNAc(b1-4)GlcNAc
# How it was run: as §1
# [34] = molecular target: GlcNAc(b1-3)Gal(b1-4)GlcNAc(b1-3)Gal(b1-4)GlcNAc(b1-3)Gal(b1-4)GlcNAc(b1-2)Man(a1-3)[GlcNAc(b1-3)Gal(b1-4)GlcNAc(b1-3)Gal(b1-4)GlcNAc(b1-3)Gal(b1-4)GlcNAc(b1-2)Man(a1-6)]Man(b1-4)GlcNAc(b1-4)[Fuc(a1-6)]GlcNAc
# How it was run: as §1
# [35] = molecular target: GlcNAc(b1-3)Gal(b1-4)GlcNAc(b1-3)Gal(b1-4)GlcNAc(b1-3)Gal(b1-4)GlcNAc(b1-2)[GlcNAc(b1-3)Gal(b1-4)GlcNAc(b1-3)Gal(b1-4)GlcNAc(b1-3)Gal(b1-4)GlcNAc(b1-6)]Man(a1-6)[GlcNAc(b1-3)Gal(b1-4)GlcNAc(b1-3)Gal(b1-4)GlcNAc(b1-3)Gal(b1-4)GlcNAc(b1-2)Man(a1-3)]Man(b1-4)GlcNAc(b1-4)[Fuc(a1-6)]GlcNAc
# How it was run: as §1
# [36] = molecular target: GlcNAc(b1-3)Gal(b1-4)GlcNAc(b1-3)Gal(b1-4)GlcNAc(b1-3)Gal(b1-4)GlcNAc(b1-3)Gal(b1-4)GlcNAc(b1-2)Man(a1-3)[GlcNAc(b1-3)Gal(b1-4)GlcNAc(b1-3)Gal(b1-4)GlcNAc(b1-3)Gal(b1-4)GlcNAc(b1-3)Gal(b1-4)GlcNAc(b1-2)Man(a1-6)]Man(b1-4)GlcNAc(b1-4)GlcNAc
# How it was run: as §1
# [37] = molecular target: GlcNAc(b1-3)Gal(b1-4)GlcNAc(b1-3)Gal(b1-4)GlcNAc(b1-3)Gal(b1-4)GlcNAc(b1-3)Gal(b1-4)GlcNAc(b1-2)Man(a1-3)[GlcNAc(b1-3)Gal(b1-4)GlcNAc(b1-3)Gal(b1-4)GlcNAc(b1-3)Gal(b1-4)GlcNAc(b1-3)Gal(b1-4)GlcNAc(b1-2)Man(a1-6)]Man(b1-4)GlcNAc(b1-4)[Fuc(a1-6)]GlcNAc
# How it was run: as §1
binder,measurement,setting,value
B1,glycan array binding signal (z-score),Glc(b1-4)Glc,-0.201
same,glycan array binding signal (z-score),Glc(b1-6)Glc,-0.243
same,glycan array binding signal (z-score),GlcA(b1-3)Gal,-0.282
same,glycan array binding signal (z-score),GlcA(b1-3)GlcNAc,-0.164
same,glycan array binding signal (z-score),GlcA(b1-6)Gal,-0.112
same,glycan array binding signal (z-score),[1],0.055
same,glycan array binding signal (z-score),[2],-0.161
same,glycan array binding signal (z-score),[3],-0.2
same,glycan array binding signal (z-score),[4],-0.2
same,glycan array binding signal (z-score),[5],-0.006
same,glycan array binding signal (z-score),[6],-0.073
same,glycan array binding signal (z-score),[7],-0.086
same,glycan array binding signal (z-score),[8],-0.065
same,glycan array binding signal (z-score),[9],-0.143
same,glycan array binding signal (z-score),[10],0.413
same,glycan array binding signal (z-score),[11],0.189
same,glycan array binding signal (z-score),[12],-0.023
same,glycan array binding signal (z-score),[13],-0.197
same,glycan array binding signal (z-score),[14],-0.212
same,glycan array binding signal (z-score),[15],-0.298
same,glycan array binding signal (z-score),[16],-0.362
same,glycan array binding signal (z-score),[17],-0.237
same,glycan array binding signal (z-score),[18],-0.319
same,glycan array binding signal (z-score),[19],-0.181
same,glycan array binding signal (z-score),[20],-0.314
same,glycan array binding signal (z-score),[21],-0.361
same,glycan array binding signal (z-score),[22],0.029
same,glycan array binding signal (z-score),[23],-0.398
same,glycan array binding signal (z-score),GlcNAc(b1-3)Fuc,-0.314
same,glycan array binding signal (z-score),GlcNAc(b1-3)Gal,-0.236
same,glycan array binding signal (z-score),[24],-0.093
same,glycan array binding signal (z-score),GlcNAc(b1-3)Gal(b1-4)Glc,-0.367
same,glycan array binding signal (z-score),[25],-0.201
same,glycan array binding signal (z-score),[26],-0.167
same,glycan array binding signal (z-score),[27],0.225
same,glycan array binding signal (z-score),[28],0.405
same,glycan array binding signal (z-score),[29],-0.302
same,glycan array binding signal (z-score),[30],1.18
same,glycan array binding signal (z-score),[31],0.201
same,glycan array binding signal (z-score),[32],0.227
same,glycan array binding signal (z-score),[33],-0.154
same,glycan array binding signal (z-score),[34],0.076
same,glycan array binding signal (z-score),[35],-0.083
same,glycan array binding signal (z-score),[36],-0.125
same,glycan array binding signal (z-score),[37],-0.196
